# Assay results as given in PubChem BioAssay AID504832 (National Center for Advancing Translational Sciences (NCATS), 2011).
# About 18,000 (5.8%) of roughly 310,000 compounds were called active. This list was built around the results that the source calls inconclusive (neither active nor inactive); the mix of calls is not that of the screen. The call rests on the fitted dose curve; in most records, active means well fitted inhibition curve with a large enough effect; inconclusive means small, poorly fitted or top-dose-only effect, or another doubt; inactive means no such curve, though single readings can be large or run the other way. Potencies of inconclusive entries are left out as doubtful fits.
# Test: Primary qHTS for delayed death inhibitors of the malarial parasite plastid, 48 hour incubation
# Conditions: P. falciparum luciferase growth in erythrocytes; series mostly up to 28.7 µM
# Procedure, shortened: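 Firefly luciferase activity from engineered P. falciparum reports growth; inhibitors lower the luminescent signal. Cultures contained 2% hematocrit erythrocytes at 0.1% final parasitemia.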
# On the % scale 0 is the no-effect control and ±100 the full control effect; potency means the concentration at half of the fitted maximal effect; tags describe the fitted curve by direction and shape.
Structure (SMILES),Potency,"activity change, negative = inhibition"
COc1ccccc1C(O)(c1ccccc1)C(CN1CCOCC1)c1ccccc1 (centres undefined),"inconclusive [inhibitor, single point]",–
CCn1c(=O)c(C(=O)CN(C)Cc2ccc(F)cc2)c(N)n(Cc2ccccc2)c1=O,"inconclusive [inhibitor, single point]",–
CC(CNC(=O)COC(=O)c1cccnc1Cl)c1ccccc1 (centres undefined),inactive,–
Cc1cccc(NC(=O)c2ccc([N+](=O)[O-])o2)n1,"inconclusive [inhibitor, single point]",–
CCOc1ccccc1C(=O)NC(C)c1ccc(-n2ccnc2)cc1 (centres undefined),"inconclusive [inhibitor, single point]",–
COc1cc2c(cc1OC)CN(Cc1cc(=O)n3c(-c4ccccc4)csc3n1)CC2,"inconclusive [inhibitor, partial curve]",–
Cc1ccc(S(=O)(=O)N2CCCC(C(=O)NCc3ccco3)C2)cc1Cl (centres undefined),"inconclusive [inhibitor, partial curve]",–
Cc1cc2c(c(=O)n1Cc1cccnc1)C(c1ccccc1)C(C#N)=C(N)O2 (centres undefined),"inconclusive [inhibitor, full curve, poor fit]",–
CC(Nc1cc(N2CCCC2)ccc1[N+](=O)[O-])c1ccccc1 (centres undefined),active: 13.1 µM,–
O=C(Nc1nc2ccc(F)cc2s1)C1CCCO1 (centres undefined),inactive,–
Cc1sc2ncn(CC(=O)N3CCN(c4ccccn4)CC3)c(=O)c2c1S(=O)(=O)N1CCC(C)CC1,inactive,–
O=C(N/N=C/c1cccc(O)c1)c1ccc2c(c1)OCCO2,inactive,–
Cc1ccc(C)c(-c2cc(C(=O)Nc3cccnc3)c3ccccc3n2)c1,active: 11.7 µM,–
CCc1ccccc1NC(=S)N1N=CCC1c1ccccc1 (centres undefined),"inconclusive [inhibitor, partial curve, poor fit]",–
CC(C)c1nc(N(C)S(C)(=O)=O)nc(-c2ccc(F)cc2)c1/C=C/C(O)CC(O)CC(=O)O (centres undefined),inactive,–
O=c1c(Cc2c(F)cccc2Cl)c(O)ccn1C1CC1,–,inactive: -31.8% [at 5.75 µM]
COc1cc(-c2c(C#N)c(N)nc3c2c(C)nn3-c2ccc(C)c(C)c2)cc(OC)c1OC,active: 4.65 µM,–
CC1Cc2ccccc2N1C(=O)COC(=O)c1c2c(nc3ccccc13)CCCCC2 (centres undefined),"inconclusive [inhibitor, single point]",–
CCCC(=O)n1nc(-c2ccc(C)cc2)nc1NCc1ccco1,inactive,–
Cc1ccc(S(=O)(=O)N(Cc2ccccc2)Cc2ccco2)cc1,"inconclusive [inhibitor, single point]",–
COC(=O)c1ccc(C(=O)NC(=S)Nc2ccc3nc(SC)sc3c2)cc1,inactive,–
Cc1cccc(/C(N)=N/OC(=O)c2ccncc2)c1,inactive,–
CC(NC(=O)c1ccccc1F)c1nnc(SCC(=O)NC2=NCCS2)n1C (centres undefined),inactive,–

Structure (SMILES),Potency,"activity change, negative = inhibition"
O=C(NCC1CCN(S(=O)(=O)c2ccccc2)CC1)Nc1ccc(F)cc1F,"inconclusive [inhibitor, full curve, poor fit]",–
Cc1ccc(SCc2c(C(=O)N/N=C/c3ccncc3)nnn2-c2nonc2N)cc1,inactive,–
O=C(c1cccc(S(=O)(=O)NCc2ccc3c(c2)OCO3)c1)N1CCCC1,"inconclusive [inhibitor, single point]",–
COC(=O)c1ccc(NC(=O)c2cc[n+]([O-])cc2)cc1,"inconclusive [inhibitor, full curve, poor fit]",–
Cc1ccc(C)c(NC(=S)Nc2cccc3cnccc23)c1,"inconclusive [inhibitor, single point]",–
CC(=O)NC(c1ccccc1)c1cc([N+](=O)[O-])c2cccnc2c1O (centres undefined),"inconclusive [inhibitor, single point]",–
CCOC(=O)c1nnn(-c2ccc([N+](=O)[O-])cc2)c1C,"inconclusive [inhibitor, single point]",–
COc1ccc(S(=O)(=O)NCc2ccc(C(=O)O)cc2)cc1,inactive,–
CC1=C(C(=O)OC(C)C)C(c2cncc(-c3ccc(F)cc3)c2)C(C#N)=C(N)O1 (centres undefined),"inconclusive [inhibitor, single point]",–
COc1cccc(N2CCN(C(=O)CC(C)(C)CC3=NS(=O)(=O)c4ccccc4N3)CC2)c1,"inconclusive [inhibitor, partial curve]",–
C=CCn1c(SCc2c(C)noc2C)nc2sc3c(c2c1=O)CCC(C)C3 (centres undefined),"inconclusive [inhibitor, partial curve]",–
CCn1cc(CCC(=O)NC(C)c2ccccc2)c2ccccc21 (centres undefined),"inconclusive [inhibitor, single point]",–
O=C(OCc1ccc(F)cc1)c1cccnc1Cl,inactive,–
COc1ccc(S(=O)(=O)N(C)c2nc3ccccc3n3c(CC(C)C)nnc23)cc1,"inconclusive [inhibitor, partial curve]",–
OCc1ccccc1OCCCN1CCC(Cc2ccccc2)CC1,"inconclusive [inhibitor, partial curve]",–
C[C@@H]1C[C@H]2[C@@H]3CCC4=CC(=O)C=C[C@]4(C)[C@@]3(Cl)[C@@H](O)C[C@]2(C)[C@@]1(OC(=O)c1ccco1)C(=O)CCl,active: 1.85 µM,–
O=C(CSc1nnc(NC(=O)c2c(F)cccc2F)s1)NCc1ccc(F)cc1,inactive,–
O=C(N/N=C/c1oc(O)c2ccccc12)c1ccccc1O,inactive,–
O=C1CN(C(=O)/C=C/c2ccc(Cl)cc2)c2ccccc2N1,"inconclusive [inhibitor, partial curve, poor fit]",–
CCCCCn1c(NC(=O)c2ccco2)c(S(=O)(=O)c2ccc(C)cc2)c2nc3ccccc3nc21,active: 5.22 µM,–
CC1=Nc2ccccc2/C1=C/c1sc(=N)n(-c2nccs2)c1O,"inconclusive [inhibitor, partial curve, poor fit]",–
CN1CCCN(C(c2ccccc2)c2ccc(Cl)cc2)CC1 (centres undefined),active: 13.5 µM,–
CCOc1cc(N2CCOCC2)c(OCC)cc1NC(=O)CN1CCN(Cc2ccc3c(c2)OCO3)CC1,"inconclusive [inhibitor, partial curve, poor fit]",–

Structure (SMILES),Potency,"activity change, negative = inhibition"
CC1(C)Cc2[nH]c(=S)c(C#N)cc2CO1,inactive,–
Cc1ccc(S(=O)(=O)N2CCN(C(C)C(=O)N3CCCc4ccccc43)CC2)cc1 (centres undefined),"inconclusive [inhibitor, partial curve, poor fit]",–
CCOC(=O)c1c(CCl)nc2ccccc2c1C,"inconclusive [inhibitor, partial curve, poor fit]",–
Cc1ccc(OCC(=O)NNC(=O)C(=O)N2CCCC2)c(C)c1,inactive,–
CCOC(=O)c1cnc2c(cnn2CC)c1NN=C(C)C,"inconclusive [inhibitor, single point]",–
COc1ccc(-c2nn(-c3ccccc3)cc2CNC(C)Cn2cncn2)c(F)c1 (centres undefined),"inconclusive [inhibitor, single point]",–
CCOC(=O)CSC1=Nc2ccccc2C2=NC(CC(=O)NCc3ccc4c(c3)OCO4)C(=O)N12 (centres undefined),active: 4.15 µM,–
COC(=O)C1=C(c2ccc(F)cc2OCc2ccccc2)C[C@@H]2CC[C@H]1N2C(=O)NCc1ccccc1C(F)(F)F,active: 5.22 µM,–
c1ccc(CC2CCN(Cc3nc(-c4ccccc4)no3)CC2)cc1,"inconclusive [inhibitor, single point]",–
O=C(c1ccc2c(c1)OCO2)N1CCOCC1,"inconclusive [inhibitor, single point]",–
CCn1nccc1C(=O)Nc1cc(Cl)cc(Cl)c1,"inconclusive [inhibitor, partial curve]",–
CCNC(=S)N(CCc1c(C)[nH]c2ccc(C)cc12)Cc1cc(OC)c(OC)c(OC)c1,"inconclusive [inhibitor, single point]",–
O=C1C(Cl)=C(NS(=O)(=O)c2ccc([N+](=O)[O-])cc2)C(=O)c2ccccc21,"inconclusive [inhibitor, partial curve]",–
Fc1ccc(NCc2nnc(SCc3nnc(-c4ccccc4)o3)n2CC2CCCO2)cc1 (centres undefined),"inconclusive [inhibitor, partial curve]",–
CCOc1ccc(NC(=S)/C(=C(\[O-])c2ccc(C)c([N+](=O)[O-])c2)[n+]2ccccc2)cc1,"inconclusive [inhibitor, partial curve, poor fit]",–
O=C(c1c(Cl)cccc1Cl)N1CCN(c2cccc3[nH]ccc23)CC1,"inconclusive [inhibitor, partial curve, poor fit]",–
Cc1ccc(CCN=c2c([N+](=O)[O-])nn(-c3ccccc3)n2O)cc1,"inconclusive [inhibitor, single point]",–
Cc1cccc(-n2nnc(C(=O)N3CCc4ccccc4C3)c2N)c1,inactive,–
CCOc1ccc(NC(=O)CN(C)C(=O)c2ccccc2-n2cnnn2)cc1OCC,"inconclusive [inhibitor, single point]",–
CN1CC(C(=O)c2cccc(C(F)(F)F)c2)C(c2ccc(Cl)cc2)C1 (centres undefined),"inconclusive [inhibitor, single point]",–
CC(=O)c1c(C)[nH]c(-c2ccccc2)nc1=S,"inconclusive [inhibitor, partial curve, poor fit]",–
CC(=O)Nc1ccccc1OCc1cnc(Cl)s1,inactive,–
Cc1cc(C(=O)N/N=C/c2ccc(-c3ccc(C)c(Cl)c3)o2)n[nH]1,"inconclusive [inhibitor, partial curve]",–
